Results as given in the supplement of paper PMC11417369.
± gives the standard deviation of the averaged measurements. This is one part of the list.

The sequences below were run on PfAP2-LT AP2 domain (GST-tagged) (assay: gcPBM binding intensity (ln(normalized median fluorescence intensity)); higher = stronger DNA binding).
How it was run: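 In this array assay, P. falciparum DNA-binding domains with a GST tag, expressed in E. coli, were applied for 1 h to primer-extended double-stranded 36-bp intergenic genomic probes and negative controls on an Agilent 4 × 180k array. Bound protein was visualised with Alexa488 anti-GST antibody at 488 nm. Binding intensity is the highest Masliner-normalised natural-log median intensity across replicate spots of either probe orientation.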

Sequence | gcPBM binding intensity (ln)
CATATTTTTTCTTAAACACACACATATATATATATA [CACACA_site8920] | 9.27 ± 0.27
TTAAAAAAAAAAAAAAGTACATAAGTATATATAATA [XGTACX_site4295] | 8.56 ± 0.46
ATATTAAGTTTTATTACACACTCTCAATTTTTATTT [CACACA_site4206] | 8.95 ± 0.43
TAAATGTTTCTCAAAAGTACACATGTGATATTTCTT [XGTACX_site2065] | 8.6 ± 0.33
TTAAAAATATTATGTACACACATTTTAGATATTTGT [CACACA_site1846] | 9.04 ± 0.43
TAAATATATATATATTGTACAAAACAAATGTGAATT [XGTACX_site696] | 8.99 ± 0.46
TCCTAATATTTGTCAAATTTCAAAATAAATAAAATG [XGTACX_negctrl_site540] | 8.2 ± 0.31
TAATTAAAATCATATACACACCCATATATATATATA [CACACA_site8524] | 9.525 ± 0.035
ATATAGTAAATGTTCACACATACAAATATATATATA [CACACA_site5518] | 9.05 ± 0.38
AAGTTTTCTTAAAGCTGTACTTTTTAAAAATAAAAT [XGTACX_site7716] | 8.11 ± 0.46
TATATATAATTATAAGAACACACATATATATATATA [CACACA_site8786] | 9.46 ± 0.36
TACAAATATAGATGCACACACATATAGGTATATGTG [CACACA_site7439] | 9.77 ± 0.38
ATATATTTCTGTCAAGCACACATAATATTAATATAT [CACACA_site7993] | 9.14 ± 0.48
AATGATACTTAGGGGCATGTCTCTGGGGGCATAACC [CACACA_negctrl_site591] | 9.27 ± 0.16
CATATTATATTTTCATGTACACATAACATATTTATA [XGTACX_site4787] | 8.76 ± 0.42
GTTATAAACAAAATAAATATATGAATATATAATAAT [XGTACX_negctrl_site96] | 8.71 ± 0.4
ATAATTATTAAGAGAACATGCAAAATATATATGTTT [TGCATGCA_site503] | 8.79 ± 0.42
AAAGCACCCAGGCACACACACAAAGGAAAAGAAAAA [CACACA_site232] | 9.79 ± 0.53
ATATATATTTCTTAAAGTACATAATAATAAAAATAT [XGTACX_site8981] | 8.55 ± 0.31
ATTTTATTTTTTTGTGATAATTGATTTATATATTGT [TGCATGCA_negctrl_site563] | 8.72 ± 0.45
AATAGAATAATCCTTACACACACACGCGCACGAATA [CACACA_site6365] | 9.78 ± 0.31
ATTATTTCTTTGTGATGTACAAATAAACATGTTGGT [XGTACX_site5636] | 8.77 ± 0.47

Sequence | gcPBM binding intensity (ln)
TATATATTACATTGTTGTACATATATATTATATATA [XGTACX_site60] | 8.85 ± 0.39
ATATATATATATATTTGTACGTATTATGTATTTTTT [XGTACX_site3530] | 9.54 ± 0.28
AATACAATAAAATAGTGTACATATATATTATGTATA [XGTACX_site8258] | 8.98 ± 0.44
TTTATATTATACTATACATGCATATAATAAAGGTCA [TGCATGCA_site934] | 8.64 ± 0.28
GAATAAATTAAAAACGCATGTATCATTACTACATAA [TGCATGCA_site111] | 8.72 ± 0.38
TTAAAATATGATATATGTACATAATTACTAAAAACA [XGTACX_site276] | 8.64 ± 0.35
GGGTTCAATTTAAAGAGTACAAAAAATGTAGGTCAT [XGTACX_site5290] | 8.92 ± 0.52
TATTATGCCTTTAATATACACACTAATATTTTTTTG [CACACA_site2045] | 8.84 ± 0.4
ATTTATCCAAAAAAATGTACAGGATAATTTGTTCAT [XGTACX_site7737] | 8.64 ± 0.34
TATAAAAATTAATATTGTACGTTTTATGAAAATAAA [XGTACX_site8237] | 8.21 ± 0.47
CATAATACCTATAACACACACAATTATACATAAACT [CACACA_site7506] | 9.53 ± 0.24
AATATATACATATATTGTACATATAGTTTCTTGCAT [XGTACX_site7871] | 8.97 ± 0.31
AGAGAGAAAGTTATAACATGCAACAATTTTTAGAAC [TGCATGCA_site96] | 8.82 ± 0.52
TTTTTTTTTTTGTGGGTGCGTTTATAAAAACAGGAA | 8.42 ± 0.33
TTTTTTTCTTGTTTTAAATAATATACTGGAAAAAAA [CACACA_negctrl_site585] | 7.88 ± 0.33
TTTCCATATTGTGGATGTACGTTTTGAGGTTTTTAC [XGTACX_site3362] | 8.88 ± 0.42
TTTTAATAAACAAAACGTACACATTATTATTATATA [XGTACX_site335] | 8.51 ± 0.42
TTTGTAGTTTGCACATGTACACATTTCAAAATAAAG [XGTACX_site7568] | 8.59 ± 0.36
TATTTGTTGTGAGTCACACATATATATATATATATA [CACACA_site4240] | 9.85 ± 0.23
AAGCTATATATAGGCAGTACTTTGTAAGTGTAGATA [XGTACX_site8365] | 9.04 ± 0.45
TTTTTTATAAAATTTTTTTTTTAAAATATTAAAACT [XGTACX_negctrl_site240] | 7.95 ± 0.61
AAAAAAAAAAAAAAAACACACAGAACAATATATAAA [CACACA_site4698] | 8.89 ± 0.51
